In the RNAGym collection of RNA variant scans (doi:10.7554/elife.90254) one finds self-cleavage data, which are given here for 167 variants.

The labels stand for the following.
B1: LINE1-full (parent)
chain: UACGUAGGUGGUUUUCCCCUGAUAGUGCUAAGGGGGCCUGGAAGUUUGGACUGGGCAGAGCUCAACACAGCGUGGCAAAGUGGCUGUGGCUAGACUGCCUCUCUGGAUUCCUCGUCACUCAGCAGGGCAUCUCUGAGAGAAAUGCC

Read counts are not given, so values of variants with three or more changes are uncertain.

In this series the parent is B1. Briefly: self-cleavage, relative activity (ratio to wild type); higher = more cleavage; in vitro, sequencing; the parent is a self-cleaving ribozyme.
As to U39A U81A A92G A138G, the self-cleavage came to 0.11. As to U15C A77G A124U, the self-cleavage was 2.86. With G10A U132C A136C, the self-cleavage was 0.95. Turning to U15C A43G A64C G70C, the self-cleavage was 0.08. In the case of U14A U47A U100C, the self-cleavage was 1.24. The same measure for G10A U115A C145U: 1.26.

Take A67U U87C U100C G126U: the self-cleavage was 0. With A64G A79U A129U the figure was 0.39; with A57U C76U G89U, 0.01; with U15A A79G U132C U143C, 1.97. For the variant U13C A24G U108C, the self-cleavage was 0.84. The same measure for A24G A141G C146U: 0.69; for U15A A64G U81A: 0.13; for C3U U47A U104C A141G: 0.99.

Take A22G A31U G35U A121U: the self-cleavage came to 0.86. The same measure for A22U G25U A121G: 1.03. Regarding U9A U46C G70A, the self-cleavage is 0.48. In the case of U5C A67G A117U, the self-cleavage was 1.24. For the variant U20C U39C A129G, the self-cleavage stood at 1.07.

With A94G A124U G139A, the self-cleavage amounted to 0.

Consider A6G U26C A65G U143C, for which the self-cleavage was determined as 0.71. The same measure for C16A A57G A78G: 0.64. With A42G A78G U81C U102C the figure was 0.71; with U45C A64U A136G, 0.45; with G8U U12G U46C C51U G80A A124U, 1.57. Take U15C U132A A141G: the self-cleavage was 1.6. Consider G4U U12C U15C U62C, for which the self-cleavage stood at 0.37. With A31G U112G C113U A138G the figure was 1.8. For the variant U13C U45C A59G U115A, the self-cleavage was 0. A22G G27A C66U A69G U81C: the self-cleavage came out at 0.13. Regarding U39A U87A U104A U143C, the self-cleavage was found to be 0.05. As for C28U G36A U91C, the self-cleavage came to 0.52.

Take U39A G53A U85A U102C A138G G144A: the self-cleavage was determined as 0.02. With A6G U13A U108C the figure was 1.19; with U1C U14C A64G A69C, 0.38; with U12C U47A A59G U87C A138G A140G, 0.32.

On to A43G U102C A129G, for which the self-cleavage turned out to be 2.19.

As for G4A U15C U46C A57U, the self-cleavage came out at 0.21. G54C U81C C84A U96C U100C: the self-cleavage worked out at 0.26. The same measure for U9C U15A C84G: 0.41; for U15C A22G U46A: 1.65. As to U45C G82A A140G, the self-cleavage turned out to be 1.08. As to A50G U73C C113A U132A, the self-cleavage turned out to be 1.26. In the case of A6G U96C U115C, the self-cleavage turned out to be 0.

U26A U52C U100C U104A: the self-cleavage was determined as 1.38. Turning to C3U U26C U45A A64U G97A, the self-cleavage was 0.08.

Consider A31U U104C A142U, for which the self-cleavage worked out at 1.23. As for U73A A78G U108C, the self-cleavage is 0.38. In the case of U5C U39G A140G, the self-cleavage turned out to be 0.81.

On to A31G G34A U96C, for which the self-cleavage was 0.1. U14C U62C A79G C101U: the self-cleavage was 0.

In the case of A64U A92U U104G, the self-cleavage came out at 0.18. Consider U26C U45C U81C, for which the self-cleavage was 0. Take U13C A22G A50G U115A: the self-cleavage came to 0.66. Regarding A2G U62C A79G, the self-cleavage amounted to 0.

Regarding U13C A79G U108C U109C, the self-cleavage was determined as 1.53. On to A31G A64G U87A U119A, for which the self-cleavage was found to be 0.

In the case of G34U A78G U112A, the self-cleavage amounted to 0.79.

For the variant A50G U73C U132C, the self-cleavage was determined as 2.3. Consider G48U G82U A136C A142G, for which the self-cleavage was 1.22.

As for U14A U20C U23C G36A G70U C113U A124G, the self-cleavage amounted to 0.09. As to A22G C71U U143A, the self-cleavage was 0.74. Consider A42U G55A U115C, for which the self-cleavage came to 0.1. The same measure for A31G A43G U104C: 1.05; for U13C U26C U81C C84U U85C: 0.13. Turning to A30G U62A A117G, the self-cleavage came to 0. U45C U87C A136G: the self-cleavage came out at 0.19. With U20C G53U U119C A141G the figure was 1.85; with U9C U39C G53A, 1.58; with A42U U47A A64G A136U, 0.15. Consider A79U U96C U119C A140U, for which the self-cleavage came out at 0.29. As for U87C A129G U143A, the self-cleavage is 0.49. For U52C A78G G82A A124U, the self-cleavage was found to be 0.92.

For the variant U26C A57G C71U A124G, the self-cleavage came out at 0.49. Take U91C U108A U143A: the self-cleavage came to 0.44. Turning to U12G U26C U119C, the self-cleavage is 0.61. In the case of U12G U108A U134A, the self-cleavage was 0.93. As to U12C A59G A142G, the self-cleavage turned out to be 0.13. With A22G A69G U96A A141U A142G the figure was 0; with U20C U45A A129U, 1.23. Consider U20A A78G A121C, for which the self-cleavage came to 2.04. As to G35A A67G G72A A140G, the self-cleavage was 0.26.

As for U39C A59G C145U, the self-cleavage came out at 0.33. The same measure for U14C U15A A50U U73C U130A: 0.61.

Regarding U13C U46C A59G A136G, the self-cleavage was 0.22. For the variant U13C A65G U96A, the self-cleavage was 0. A22G A94G A121U U130C: the self-cleavage is 0.09.

For the variant U5A G41A U115C, the self-cleavage turned out to be 0.86. As to U20C A77G G127A, the self-cleavage came out at 2.68. Turning to A6U A65U A79G, the self-cleavage turned out to be 0.17. Turning to U14C U15C A65G C145U, the self-cleavage is 0.22. As to U91C U104A A136G A141G, the self-cleavage was 0.41. With U14C A31G U119A the figure was 1.23; with U23C A67U U102A, 0.

Regarding A50G G80A U85C, the self-cleavage is 0.15. A42G G97U U108C A142G: the self-cleavage was 0.15. With A50G A77U G80A the figure was 0.67.

Regarding C19U A78G A79U U109A, the self-cleavage turned out to be 0.55.

Turning to U13C C19A U39A A140G C146U, the self-cleavage was found to be 1.31. Take U13A A77G G114A: the self-cleavage turned out to be 2.02. For U52A A64G U108C C113U, the self-cleavage is 0.61. Regarding A78G U102C A121G, the self-cleavage stood at 1.48. On to U12G G32A U62G A117G, for which the self-cleavage was 0.94. With U13C A67G U85C the figure was 0.14; with A43G U52A A57G, 0.94. Take U13A U14C A79G U119A: the self-cleavage was 0.62.

C17U A59G U104A A121G U130A: the self-cleavage was 0. With A6G U109A U143A, the self-cleavage amounted to 0.85. The same measure for U26A A30C U45C U96A A142G: 0; for C71G A77G C110U: 0.57; for U13C U46C A67G U73A A140G: 1.28. Take U14C U26C C76U A117C A141G: the self-cleavage amounted to 2.77. With U96A G106C U119C A129G, the self-cleavage amounted to 0.04. With A57U A69U A124U A138G the figure was 0.

Take U39C A67G C120U: the self-cleavage was found to be 0.5. For the variant U5A U12G A136G, the self-cleavage was determined as 0.92. As for A24G U52G U62A A107G U119A, the self-cleavage was 0.46. On to U12C U15A A67U A129G, for which the self-cleavage was found to be 0.08.

Consider U13A C71U A140G, for which the self-cleavage was 0.54. The same measure for A57G G127A U134G: 0.36. In the case of A24G U85C A117G C133U, the self-cleavage is 0.

In the case of U45C U62G C113A, the self-cleavage was found to be 0.03.

Take C51U G80U A117G: the self-cleavage turned out to be 1.04. Turning to A2G G7A G8U A22G A67G, the self-cleavage was 0.

Regarding C37U U104A U134A, the self-cleavage came out at 0.87. As for G21U A31U U104A U119C A124G, the self-cleavage turned out to be 0.43. Turning to A6C U96A A121U, the self-cleavage came out at 0.26. On to U15A A30G U39C U47A A57G U62C, for which the self-cleavage was determined as 0.51. On to U12C U15C U119A, for which the self-cleavage is 1.51. As for G89A A92G C113A U115C, the self-cleavage came to 0.03. In the case of U15C U81C A129U, the self-cleavage turned out to be 1.18. For the variant G74A A78U U108C, the self-cleavage turned out to be 2.78.

With A92U U130C G135A, the self-cleavage is 0.66.

With U12C A64G A138U U143C, the self-cleavage is 0.49.

In the case of U9A C110A A141G, the self-cleavage amounted to 1.97. On to U96C U109C C146A, for which the self-cleavage amounted to 0.1.

For A42U A43G U100C A117G, the self-cleavage came out at 2.63. With U15C C38A C51U U96C U115C A124G the figure was 0. On to U14C U23C U29C U96A U119A C131U, for which the self-cleavage came to 0. Take A94G U112A G125A U143C: the self-cleavage was 0.27. The same measure for U1A U13C U20C A43G U109C: 0.75.

U15C A57U A67G: the self-cleavage is 0.19. Turning to A94G G122A A140G, the self-cleavage is 0.33. With G4A A6U U15C A43G U62C the figure was 0.84. As for A94U U134G A142G, the self-cleavage turned out to be 0.41. With U13C G41U U132A the figure was 1.33. For U15C U26A A92G U96C, the self-cleavage turned out to be 0.66. Take U14C A142G U143C: the self-cleavage was 1.67. The same measure for U20C U73C A140G: 1.11; for U20A G35A A57G U104A U132A: 0.28. With U1A U73C A141G, the self-cleavage amounted to 1.44. As for U1C U108C A129G, the self-cleavage came to 2.7. The same measure for U9A A69U G89C: 0.02; for U62C U87G U112A: 0.03. For U13C A42U A59G U62A U143A, the self-cleavage is 0.12.

As to U12A U85A A121C, the self-cleavage was 0.23.

For A22U U26A U29C U52A A79G, the self-cleavage amounted to 1.49. U39A C51A A107G A141G: the self-cleavage stood at 1.34.

For the variant U39C A59U A65G A67G G83A G127A A140U, the self-cleavage came to 0.09. Consider C3U U9C U132A A138C, for which the self-cleavage amounted to 0.31. The same measure for A65G U73G U85C A117U: 0; for A30U U96G U102C: 0.31. The same measure for G7A U13C U47C G114A: 0.9; for U12C U15C U47C A136G: 0.82; for A2G U14C G58A U73C U132A: 0.34.

With U15C G34A U62A U130C, the self-cleavage was 0. With A30G A57U A140G, the self-cleavage was determined as 0.55.
